Assay results published in US20190309066A1, “COMBINATION THERAPY FOR THE TREATMENT OF SOLID AND HEMATOLOGICAL CANCERS” (Arch Oncology, Inc., priority 2017, published 2019).

Tests used:
[1] = test system: Jurkat cells; test: In vitro cell death assay (annexin V / 7-AAD); type: cell-based, human; settings: 1 μg/ml soluble mAb, 24 hrs
Description: Induction of cell death by soluble anti-CD47 mAbs is measured in vitro (Manna et al. (2003) J. Immunol. […] (7): 3544-53, Kikuchi et al. Biochem Biophys Res. Commun. 315: 912-8, 2004), Pettersen et al. J. Immuno. 162: 7031-7040, 1999), Manna et al. Cancer Research, 64: 1026-1036, 2004). For the in vitro cell death assay, 1×10^5 transformed human T cells (Jurkat cells) were incubated with soluble humanized VLX4, VLX8, and VLX9 CD47 mAbs (1 μg/ml) for 24 hrs at 37° C. As cell death occurs, mitochondrial membrane potential is decreased, the inner leaflet of the cell membrane is inverted, exposing phosphatidylserines (PS), and propidium iodide (PI) or 7-aminoactinomycin D (7-AAD) is able to incorporate into nuclear DNA. In order to detect these cellular changes, cells were then stained with fluorescently labelled annexin V and PI or 7-aminoactinomycin D (7-AAD) (BD Biosciences) and the signal detected using an Accuri C6 flow cytometer (BD Biosciences). The increase in PS exposure is determined by measuring the percent increase in annexin V signal and the percent of dead cells by measuring the percent increase in PI or 7-AAD signal. Annexin V positive (annexin V+) or annexin V positive/7-AAD negative (annexin V^+/7-AAD^−) cells are observed in early stages of cell death and annexin V positive/7-AAD positive (annexin V^+/7-AAD^+) cells are dead cells. […]

[2] = test system: human red blood cells (hRBCs); test: Hemagglutination of washed hRBCs; type: cell-based; settings: mAb concentrations 50 μg/ml down to 0.3 ng/ml or 0.3 pg/ml
Description: Hemagglutination of hRBCs was assessed following incubation of hRBCs with various concentrations of chimeric and humanized VLX4, VLX8, and VLX9 mAbs in vitro essentially as described by Kikuchi et al. Biochem Biophys Res. Commun (2004) 315:912-918. Blood was obtained from healthy donors, diluted (1:50) in PBS/1 mM EDTA/BSA and washed 3 times with PBS/EDTA/BSA. hRBCs were added to U-bottomed 96 well plates with equal volumes of the antibodies (75 μl of each) and incubated for 3 hrs at 37° C. and overnight at 4° C.

[3] = biological target: T1, human CD47 on hRBCs (Homo sapiens, UniProt Q08722); test: Flow cytometry binding to freshly isolated human red blood cells; settings: Table 1, chimeric (xi) mAbs; read-out: Kd (pM) hRBC
T1 construct: freshly isolated human red blood cells (hRBCs), which display CD47 on their surface; endogenous in cells; host or cells: human red blood cells from blood of normal volunteers
T1 sequence (Q08722 19-323): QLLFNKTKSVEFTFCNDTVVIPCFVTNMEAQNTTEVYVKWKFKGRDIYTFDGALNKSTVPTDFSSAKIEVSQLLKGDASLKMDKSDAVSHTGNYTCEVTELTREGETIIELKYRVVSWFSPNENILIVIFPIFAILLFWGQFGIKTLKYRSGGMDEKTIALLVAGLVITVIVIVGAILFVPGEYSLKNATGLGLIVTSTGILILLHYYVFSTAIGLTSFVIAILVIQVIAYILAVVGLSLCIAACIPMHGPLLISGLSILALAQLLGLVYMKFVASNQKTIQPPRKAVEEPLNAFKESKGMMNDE
Description: Binding activities of chimeric and humanized VLX4, VLX8, and VLX9 mAbs to human CD47 on hRBCs were also determined using flow cytometry.

[4] = biological target: T2, human CD47 (OV10 hCD47 cells) (Homo sapiens, UniProt Q08722); test: Cell-based ELISA binding to OV10 hCD47 cells; settings: Table 1, chimeric (xi) mAbs; apparent Kd
T2 construct: expressed in transfected cells; host or cells: OV10 human ovarian cancer cell line
T2 sequence (Q08722 19-323): as above
Description: The binding of chimeric (murine-human) and humanized antibodies of the present disclosure was determined by ELISA using OV10 cells transfected with human CD47 (OV10 hCD47) or using freshly isolated human red blood cells (hRBCs), which display CD47 on their surface (Kamel et al. (2010) Blood. Transfus. 8(4):260-266).
Binding activities of VLX4, VLX8, and VLX9 chimeric (xi) and humanized mAbs were determined using a cell-based ELISA assay with human OV10 hCD47cells expressing cell surface human CD47. OV10 hCD47 cells were grown in IMDM medium containing 10% heat inactivated fetal bovine serum (BioWest; S01520). One day before assay, 3×10^4 cells were plated in 96 well cell bind plates (Corning #3300, VWR #66025-626) and were 95-100% confluent at the time of assay. Cells were washed, various concentrations of purified antibodies added in IMDM and incubated at 37° C. for 1 hr in 95% O2/5% CO2. Cells were then washed with media and incubated for an additional hour at 37° C. with HRP labelled secondary anti-human antibody (Promega) diluted 1/2500 in media. […] Reactions were terminated by the addition of HCl to 0.7N, and absorbance at 450 nm determined using a Tecan model Infinite M200 plate reader. The apparent binding affinities of these clones to human OV10 hCD47 cells was determined by non-linear fit (Prism GraphPad software).

Kd [3] [pM]	Kd [4] [pM]	Molecule	PS exposure and cell death (annexin V+, annexin V+/7-AAD−, annexin V+/7-AAD+) [1]	hemagglutination of hRBCs (in words) [2]
–	–	VLX8 IgG1 N297Q (xi): chimeric (murine-human) anti-CD47 mAb, human IgG1-N297Q (antibody) heavy: EVQLQQSGPELMKPGASVKISCKASGYSFTNYYIHWVNQSHGKSLEWIGYIDPLNGDTTYNQKFKGKATLTVDKSSSTAYMRLSSLTSADSAVYYCARGGKRAMDYWGQGTSVTVSS[letters of human IgG1 constant region with changes left out] light: DIQMTQTTSSLSASLGDRVTISCRASQDISNYLNWYQQKPDGTVKLLIYYTSRLYSGVPSRFSGSGSGTDYSLTISNLEQEDIATYFCQQGNTLPWTFGGGTKLEIKRTVAAPSVFIFPPSDEQLKSGTASVVCLLNNFYPREAKVQWKVDNALQSGNSQESVTEQDSKDSTYSLSSTLTLSKADYEKHKVYACEVTHQGLSSPVTKSFNRGEC	induced increased PS exposure and cell death	–
–	–	VLX8 IgG4 PE (xi): chimeric (murine-human) anti-CD47 mAb, human IgG4 PE (antibody) heavy: EVQLQQSGPELMKPGASVKISCKASGYSFTNYYIHWVNQSHGKSLEWIGYIDPLNGDTTYNQKFKGKATLTVDKSSSTAYMRLSSLTSADSAVYYCARGGKRAMDYWGQGTSVTVSSASTKGPSVFPLAPCSRSTSESTAALGCLVKDYFPEPVTVSWNSGALTSGVHTFPAVLQSSGLYSLSSVVTVPSSSLGTKTYTCNVDHKPSNTKVDKRV[letters of human IgG4 Fc with changes left out] light: DIQMTQTTSSLSASLGDRVTISCRASQDISNYLNWYQQKPDGTVKLLIYYTSRLYSGVPSRFSGSGSGTDYSLTISNLEQEDIATYFCQQGNTLPWTFGGGTKLEIKRTVAAPSVFIFPPSDEQLKSGTASVVCLLNNFYPREAKVQWKVDNALQSGNSQESVTEQDSKDSTYSLSSTLTLSKADYEKHKVYACEVTHQGLSSPVTKSFNRGEC	induced increased PS exposure and cell death	caused visible hemagglutination
92	258	VLX4 IgG1 N297Q (xi): chimeric (murine-human) anti-CD47 mAb, human IgG1-N297Q (antibody) heavy: EVQLQQSGPELVKPGASVKMSCKASGYTFTNYVIHWVKRRPGQGLEWIGYIYPYNDGILYNEKFKGKATVTSDKSSSTAYMDLSSLTSEDSAVYYCTRGGYYVPDYWGQGTTLTVSS[letters of human IgG1 constant region with changes left out] light: DVLMTQTPLSLPVNLGDQASISCRSRQSIVHTNGNTYLGWFLQKPGQSPKLLIYKVSNRFSGVPDRFSGSGSGTDFTLTISRVEAEDLGVYYCFQGSHVPYTFGGGTKLEIKRTVAAPSVFIFPPSDEQLKSGTASVVCLLNNFYPREAKVQWKVDNALQSGNSQESVTEQDSKDSTYSLSSTLTLSKADYEKHKVYACEVTHQGLSSPVTKSFNRGEC	–	–
